Results as given in PubChem BioAssay AID624171 (National Center for Advancing Translational Sciences (NCATS), 2012).
The campaign covered roughly 410,000 compounds. About 1,200 (0.29%) were called active. This list was built around the results that the source calls inconclusive (neither active nor inactive); the mix of calls is not that of the screen. Calls come from the whole dose curve; as a rule, active = well fitted activation curve with a large enough effect; inconclusive = small, poorly fitted or top-dose-only effect; inactive = flat fitted curve, though single readings scatter. A potency beside an inconclusive call is a rough fit, not a confirmed value.

Test: qHTS of Nrf2 Activators; note: nearly all actives have a fitted effect of over 65% in size; for activation: % of control where 0% means no effect
Details: AREc32 ARE-luciferase reporter (MCF7-derived line), luminescence, 24 h; activation: at 46.1 µM (top of the series)
In short: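 AREc32 cells carrying an ARE-driven firefly luciferase, 1000 cells/well in OPTI-MEM with 5% FBS, dosed after overnight attachment and incubated 24 hr at 37 deg C. Steady-Glo luminescence read after 30 min at RT.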
Potency is the fitted concentration of half-maximal effect; tags give direction and shape of the fitted curve.

Potency, inconclusive:
O=C(N/C(=C/c1ccc(Br)cc1)C(=O)N1CCCC1=O)c1ccco1 14.1 µM [activator, single point], O=C(CSc1nc2ccccc2c2nc3ccccc3n12)NCc1ccco1 22.4 µM [activator, single point], CCc1nnc(NC(=O)c2ncc(Cl)c(Cl)c2Cl)s1 12.6 µM [activator, partial curve, poor fit], COCCNC(=O)/C(C#N)=C/C(C)=C/c1ccccc1 22.4 µM [activator, single point], Cc1cc(C(c2nnnn2Cc2ccccc2)N2CCOCC2)c(C)n1-c1ccc2c(c1)OCO2 (stereo not given) 22.4 µM [activator, single point], O=C(Oc1ccccc1C(=O)Nc1ccccc1)c1ccc(Br)c([N+](=O)[O-])c1 22.4 µM [activator, single point], Cc1ccc(/C=C2\C(=O)Nc3ccccc32)o1 7.08 µM [activator, partial curve], O=C(CC(=O)Nc1ccccc1[N+](=O)[O-])Nc1ccccc1[N+](=O)[O-] 3.16 µM [activator, full curve], O=C(Nc1ccc2ccccc2c1)c1ccc(Br)o1 2.82 µM [activator, full curve, poor fit], Cc1ccc([N+](=O)[O-])cc1NC(=O)CN(C1CCCCC1)S(=O)(=O)c1ccc(Cl)cc1 17.8 µM [activator, partial curve, poor fit], Cc1nc(SCC(=O)N(C)C2CCS(=O)(=O)C2)c2ccccc2n1 (stereo not given) 28.2 µM [activator, single point], O=C1/C(=C/c2ccc(N3CCOCC3)o2)SC(=Nc2ccccc2)N1CCc1c[nH]c2ccccc12 1.78 µM [activator, partial curve, poor fit], CCC(C)[C@H](Nc1nc(-c2ccccc2)nc2c1oc1ccccc12)C(=O)O (stereo not given in full) 15.8 µM [activator, single point], COc1ccc(C(=O)/C=C2/C(=O)Nc3ccccc32)cc1OC 11.2 µM [activator, partial curve], O=C1c2ccccc2S(=O)(=O)N1CCS(=O)(=O)c1ccc(F)cc1 12.6 µM [activator, partial curve, poor fit], Cc1ccc(-c2cc(-c3ccccc3[N+](=O)[O-])[nH]n2)c(O)c1 2.82 µM [activator, partial curve, poor fit], COc1ccc(NC(=O)N2c3ccc(OC)cc3C(C)=CC2(C)C)cc1 22.4 µM [activator, single point], COc1ccc(Br)cc1/C=C/C(=O)c1ccc(NC(C)=O)cc1 3.55 µM [activator, partial curve, poor fit], NC(=S)N/N=C/c1cccc(O)c1O 17.8 µM [activator, single point], CC1CCCC(C)N1/N=C/C=C/c1ccccc1[N+](=O)[O-] (stereo not given) 20 µM [activator, single point], O=C(NCCN1CCOCC1)c1cc(-c2cccs2)on1 12.6 µM [activator, single point], COC(=O)/C=C/c1ccc(OC(=O)OC)c(OC(=O)OC)c1 35.5 µM [activator, partial curve, poor fit], COCCCNc1nc2c(-c3cccc(C(F)(F)F)c3)nnn2c2ccccc12 11.2 µM [activator, partial curve, poor fit], Cc1ccc[n+](CC(=O)Nc2ccc([N+](=O)[O-])cc2)c1 20 µM [activator, partial curve, poor fit], COC(=O)c1scc(C)c1N/N=C(\C)c1ccc(F)cc1 14.1 µM [activator, partial curve, poor fit], O=C(Nc1nncs1)c1cc(-c2ccco2)nc2ccccc12 11.2 µM [activator, partial curve], O=C(CCl)Nc1cc(S(=O)(=O)N2CCCCCC2)ccc1Cl 25.1 µM [activator, single point], O=[N+]([O-])c1ccc(Cl)cc1Sc1nc2ccccc2o1 17.8 µM [activator, single point], Cc1ccc(-c2ccccc2NC(=O)CCl)o1 25.1 µM [activator, single point], O=S(=O)(c1cnc(Cl)c(Cl)c1)N1CCc2ccccc21 35.5 µM [activator, single point], CC(C)(C)/C(O)=C/c1nc2ccccc2oc1=O 12.6 µM [activator, partial curve, poor fit], O=C(/C=C/c1ccco1)N1CCN(C/C=C/c2ccccc2)CC1 22.4 µM [activator, single point], O=C(OCC(=O)N1CCOCC1)c1c(Cl)ccc(Cl)c1Cl 15.8 µM [activator, partial curve, poor fit], Cc1cccc(C2c3[nH]c4ccccc4c3CCN2C(=O)c2noc3c2CCCC3)n1 (stereo not given) 20 µM [activator, single point], CSC(=S)N/N=C/c1c[nH]c2ccccc12 28.2 µM [activator, single point], Cc1ccc(C(=O)C=Cc2cccc(C)c2)cc1 35.5 µM [activator, single point], O=C(CSc1ccccc1Cl)c1ccco1 20 µM [activator, single point], Oc1c(Br)cc(Br)cc1CNc1cnc2ccccc2c1 15.8 µM [activator, single point], Cc1cccc(NC(=O)c2cc(Cl)nc3ccccc23)n1 11.2 µM [activator, single point], Cc1c(C(=O)N(Cc2ccco2)Cc2ccccc2Cl)oc2ccc(F)cc12 22.4 µM [activator, single point], COc1ccc(/C=C/C(=O)c2cc3c(cc2N)OCO3)cc1 14.1 µM [activator, partial curve, poor fit], CCOC(=O)c1c(NC(=O)CCN2CCOCC2)sc2c1CC(C)(C)OC2 15.8 µM [activator, partial curve, poor fit], CCCC(=O)Nc1cc(C)c2c(=O)oc3ccccc3c2n1 5.01 µM [activator, partial curve], CCOc1ccc2nc(C)cc(Nc3cccc([N+](=O)[O-])c3)c2c1 31.6 µM [activator, single point], S=c1[nH]nc(-c2ccco2)n1/N=C/c1c(Cl)cccc1Cl 2.51 µM [activator, full curve, poor fit]

Potency, active:
O=C(/C=C/c1cccc([N+](=O)[O-])c1)c1cccs1 15.8 µM, Cc1cc(C)c2sc(NC(=O)c3ccc([N+](=O)[O-])o3)nc2c1 7.94 µM, NNc1nc(-c2ccccc2)nc2sc3c(c12)CCCC3 1.41 µM, Cc1ccc2c(N)c(C(=O)c3ccccc3)sc2n1 8.91 µM

activation, inactive:
Cc1cccc(C2=NN(c3ccccc3)[C@H](CO)[C@H]2c2ccccc2)c1 4.57%, O=C(CN1CCN(Cc2ccccc2Cl)C1=O)NC1CCCCCC1 3.22%, Cc1ccc(OCCCSc2nc(-c3ccc(C(C)(C)C)cc3)nc3cc(=O)[nH]n23)cc1C -1.3%, CCc1ccc(-n2nc(CO)c(C(=O)NCc3ccccc3OC)n2)cc1 -1.04%, CCN(CC)CCCNC(=O)c1cc(Nc2ccc(OC)cc2)nc2ccccc12 -0.456%, CCOc1ccccc1NC(c1nnc(-c2ccccc2)o1)c1ccc(F)cc1Cl (stereo not given) 6.37%, O=C1OCCC1Sc1nnc(-c2cccnc2)n1-c1ccccc1F (stereo not given) -0.0134%, CCOc1ccc(CNC(=O)c2ccc3c(c2)nc2n3CCC(C)C2)cc1OC (stereo not given) 0.346%, CNC(=O)c1c(NC(=O)c2ccc(S(=O)(=O)N3CCCCC3C)cc2)sc2c1CCC2 (stereo not given) 0.384%, COc1ccc(C(=O)n2nnc3ccccc32)cc1Br -0.371%, c1ccc(SCc2cc(-c3ccccc3)no2)cc1 4.18%, CCC(C(=O)Nc1ccccc1OC)n1c(C(=O)OC)cc2sc(Cl)cc21 (stereo not given) 14.1%, CCOc1ccccc1NC(=O)CCNS(=O)(=O)c1ccccc1 0.173% [at 9.22 µM], COc1cc(CN2CCCC(C(=O)N3CCc4ccccc4C3)C2)cc(OC)c1OC (stereo not given) 0.234%, CC(=O)Nc1c(C)nn(-c2ccccc2)c1N1CCC(C(=O)NCc2ccc(F)cc2)CC1 -0.344%, CC(C)(C)c1ccc(C(=O)NCCC(=O)Nc2ccc(S(=O)(=O)Nc3nccs3)cc2)cc1 0.0462%, O=C(CCC1N=C2c3ccccc3N=C(SCC(=O)Nc3ccc(F)cc3)N2C1=O)NCc1cccs1 (stereo not given) 0.51%, COc1ccc(C(=S)N2CCOCC2)cc1OC(=O)c1ccc([N+](=O)[O-])cc1 0.138%, O=C(c1ccccc1Br)N1CCC(c2nc3ccccc3o2)CC1 0.653%, O=C(/C=C/c1ccc(Cl)cc1)NC(=S)Nc1ccc(NC(=O)c2ccco2)cc1 3.71%, Cc1cc(=O)n2c(nc3ccccc32)[nH]1 -0.29%
